The values below come from PubChem BioAssay AID900 (National Center for Advancing Translational Sciences (NCATS), 2007).

About 20 (0.03%) of roughly 75,000 compounds were called active. Inconclusive results (about 1%) are left out. Calls come from the whole dose curve; as a rule, active = well fitted inhibition curve with a large enough effect; inconclusive = small, poorly fitted or top-dose-only effect; inactive = flat fitted curve, though single readings scatter. Only a part is listed here, and it is no random draw.
Potency is the fitted concentration of half-maximal effect.

The experiment has as its target Caspase-1 (Homo sapiens) (UniProt P29466). Put plainly: qHTS Assay for Allosteric/Competitive Inhibitors of Caspase-1.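 For activity change, negative = inhibition: plate controls were vehicle for no effect and no substrate for full effect.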 The settings on record: Caspase-1 enzyme, Ac-WEHD-AFC fluorogenic rate; series mostly up to 57.5 µM; activity change, negative = inhibition: at the top concentration. An excerpt: NIH Molecular Libraries Screening Centers Network [MLSCN]
NIH Chemical Genomics Center [NCGC]
PI Name: Dr. James Wells,
Dr. Enrique Perez-Paya, Dr.Janice Williams, Dr. Dennis Wolan, a person
The caspases (Cysteine Aspartyl Protease) comprise a related family of 14 dimeric proteases that are critical mediators of apoptosis (programmed cell death) and inflammation. The caspases represent an important class of drug targets for stroke, ischemia, cancer and inflammatory diseases. […] One goal of this project was to identify compounds that act as allosteric inhibitors via stabilizing the procaspase form of the enzyme. Previous work in Well's laboratory has shown that such allosteric inhibitors can be identified and these act by binding at the dimer interface of enzyme (Hardy, Lam et al., 2004).
The biochemical assay was configured using purified caspase 1 at a high enzyme concentration to promote formation of the homodimers and thus facilitate the identification of allosteric inhibitors. The overall goal was to identify reversible inhibitors with better drug-like properties than the currently available set of aspartyl-containing peptidomimetics that covalently bind the active site. Caspase 1 was assayed using the profluorescent substrate Ac-WEHD-AFC. After initiation of the assay with substrate the plates were rapidly read using an automated robotic system (Kalypsys, Inc.) to maintain consistent timing. A kinetic mode of detection was used where the initial rate was collected (estimated final product formation was ~10%). Compounds were screened as a concentration-titration series that ranged from 57 uM to 0.7 nM. Below is the protocol used for caspase 1.
NCGC Assay Protocol Summary:
Caspase 1 was prepared in buffer (50 mM HEPES pH 7.5, 50 mM KCl, 200 mM NaCl, 10 mM DTT, 0.1% CHAPS) at a concentration of 66.6 nM and 3 uL was dispensed to all wells using black solid Kalypsys 1536-well plates. 20 nL of DMSO containing compounds was added using a pin-tool (Kalypsys Inc.) to columns 5-48. Then 20 nL of DMSO solution from a control plate was added to columns 1-4. Controls were: Column 1, 16 point titration with each concentration in duplicate (1:1 dilutions in DMSO; final starting concentration was 57 uM) of the caspase 1 inhibitor Ac-WEHD-CHO (Alexis Biochemicals); Column 2, a 16 point titration with each concentration in duplicate of the free AFC fluorophore prepared in DMSO (Alexis Biochemicals), final starting was 40 uM; Column 3 neutral (DMSO only) control; Column 4: DMSO alone, to serve as a negative control (no substrate was added). Then 1 uL of 20 uM the substrate Ac-WEHD-AFC (Alexis Biochemicals) prepared in the same buffer was dispensed to all wells except columns 2 and 4 and the plates were immediately transferred (< 1 min) to the Viewlux. The plates were then exposed using 405 nm excitation/520 nm emission filters for 4 sec and read at 20 sec intervals for 3 min. Final enzyme concentration was 50 nM and the final substrate concentration was 5 uM.
Concentration-response curves were fitted to the data calculated from slope of the linear regression of fluorescent intensity versus time (the rate). The concentration-effect curves were then classified based on curve quality (r2), response magnitude and degree of measured activity. […] Inconclusive compounds had appreciable concentration-dependent effects on both the measured rate and the interpolated basal fluorescence intensity at the start of the reaction but where the basal fluorescent intensity was marginal (e.g. < 10-fold). Inconclusive compounds also encompass highly fluorescent compounds (>100-fold increases in fluorescent intensities values relative to controls) where artificial concentration-dependent decreases in the rate occurred at high compound concentrations due to fluorescent interferences.
Keywords: Caspase 1, proteases, profluorescent, MLSMR, MLSCN, NIH Roadmap, qHTS, NCGC
Consider `CN(C)CC/C=C1\c2ccccc2Sc2ccc(Cl)cc21`, for which the Potency result is “inactive”.
Consider `COc1cc(CNC(=O)CCCC/C=C\C(C)C)ccc1O`, for which the Potency entry is “inactive”.
Same read-out and setting: with `CCCN(CCC)[C@@H]1CCc2ccc(O)cc2C1` the entry was “inactive”.
Take `CC(CO)NC(=O)C1C=C2c3cccc4[nH]cc(c34)C[C@H]2N(C)C1` (stereo partly specified): the “activity change, negative = inhibition” value is inactive: 0.235%.
On to `COc1cc2c(c(OC)c1OC)-c1ccc(OC)c(=O)cc1C(NC(C)=O)CC2` (stereo unspecified), for which the “activity change, negative = inhibition” value is inactive: -9.62%.
As to `COc1cc2c(c(OC)c1OC)-c1ccc(OC)c(=O)cc1[C@H](NC(C)=O)CC2`, the Potency entry is “inactive”.
As for `COc1cc(CNC(=O)CCCC/C=C/C(C)C)ccc1O`, the “activity change, negative = inhibition” value is inactive: -7.33%.
Regarding `CCn1nc(-c2cccs2)nc2c(=O)n(C)c(=O)nc1-2`, the Potency is active: 794 nM.
On to `CCCCC/C=C\C/C=C\C/C=C\C/C=C\CCCC(=O)O`, for which the “activity change, negative = inhibition” value is inactive: -2.13%.
For `CC[C@@H]1CN2CCc3cc(OC)c(OC)cc3[C@H]2C[C@@H]1C[C@H]1NCCc2cc(OC)c(OC)cc21`, the “activity change, negative = inhibition” value was inactive: -11.3% [at 25.7 µM].
As for `CC[C@@H]1CN2CCc3cc(OC)c(OC)cc3[C@H]2C[C@@H]1C[C@@H]1NCCc2cc(OC)c(OC)cc21`, the “activity change, negative = inhibition” value was inactive: -3.07%.
